Among all 330,000 compounds or so, about 4,200 (1.3%) were called active. Inconclusive results, whose numbers are uncertain, are shown with a selection of clear calls. The call rests on the fitted dose curve; in most records, active means well fitted activation curve with a large enough effect; inconclusive means small, poorly fitted or top-dose-only effect; inactive means no such curve, though single readings can be large or run the other way. Potencies beside an inconclusive call are fits to weak or partial responses and may not hold up.
Test: qHTS screen for small molecules that induce genotoxicity in human embryonic kidney (HEK293T) cells expressing luciferase-tagged ELG1; further: nearly all actives have a fitted effect of over 60% in size
Details: HEK293T ELG1-luciferase reporter, luminescence, 16 h; series mostly up to 46 µM
How it was run: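 Step 1: seed 2,000 HEK293T ELG1-luciferase cells per well. Step 2: add compound or DMSO, incubate 16 hr at 37 °C. Step 3: ONE-Glo, 30 min at room temperature, read luminescence.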
Potency means the concentration at half of the fitted maximal effect; tags describe the fitted curve by direction and shape.

Compound | Potency
CCO[C@H]1OC(C(=O)Nc2ccccc2)=C[C@@H](c2ccc(C(F)(F)F)cc2)[C@@H]1CCCO | inactive
Cc1nn(CC(=O)N(C)C)c(C)c1S(=O)(=O)N1CCOCC1 | inactive
c1ccc(-c2nccc(-c3ccc4c(c3)OCO4)n2)cc1 | inconclusive: 14.6 µM [activator, partial curve, poor fit]
CC(CCc1ccccc1)NC(=O)c1cc2sccc2n1C (stereo not given) | inconclusive: 18.4 µM [activator, partial curve, poor fit]
CN(CC(=O)Nc1ccccc1Br)C(=O)CCC1CCCC1 | inconclusive: 11.6 µM [activator, partial curve]
Cc1cc(OCc2cc(C(=O)N(C)CCc3cnn(C)c3)no2)cc(C)c1Cl | inconclusive: 9.2 µM [activator, partial curve]
Cc1ccc2cc(COC(=O)C3CCCO3)c(=O)[nH]c2c1 (stereo not given) | inactive
COc1ccc(CCNc2cc(N3CCN(C(=O)c4ccc(C)cc4)CC3)ccc2[N+](=O)[O-])cc1OC | inactive
Cc1ccccc1-c1nnc(-c2ccc(Cl)cc2)o1 | active: 16.4 µM
Cc1ccc(C)c(NC(=O)Nc2ccc3c(c2)OCO3)c1 | inconclusive: 20.6 µM [activator, single point]
O=[N+]([O-])c1ccc(O)c(/C=N/Nc2nc3ccccc3[nH]2)c1 | active: 18.4 µM
CCC(CC)c1nnc(NC(=O)C23CC4CC(CC(NC(C)=O)(C4)C2)C3)s1 | inactive
CCCc1cc(C(=O)Nc2cccc(Cl)c2C)no1 | active: 18.3 µM
COc1ccc(/C=C2/CCc3ccccc3C2=O)cc1OC | inconclusive: 14.6 µM [activator, partial curve]
COc1ccc(Nc2oc(-c3ccccc3)nc2C#N)cc1 | inconclusive: 2.06 µM [activator, partial curve]
CCOC(=O)C1=C(COC(=O)c2cccc(N(C)C)c2)NC(=O)NC1C (stereo not given) | inconclusive: 9.2 µM [activator, partial curve]
N#Cc1ccsc1NC(=O)CCS(=O)(=O)c1ccccc1 | inactive
COc1ccc(-c2nnc(-c3ccc(F)cc3)o2)cc1 | active: 3.66 µM
CCOC(=O)c1sc2nc(CC(=O)OC)nc(N3CCN(c4ccccn4)CC3)c2c1C | inactive
Cc1cccc(-n2cnc(C(=O)N/N=C/c3ccccc3)c2)n1 | inconclusive: 25.9 µM [activator, partial curve, poor fit]
COc1ccccc1C(CNC(=O)c1ccc(S(=O)(=O)N2CCCCC2)cc1)N(C)C (stereo not given) | inactive
COc1ccc2oc(C(=O)Nc3nc4ccccc4[nH]3)c(C)c2c1 | inconclusive: 1.64 µM [activator, partial curve]
CC(=O)c1cn(N2CCCCC2)c(=O)[nH]c1=O | inactive
Cc1ccc(C(=O)N(C)CC(=O)Nc2cccc(F)c2)cc1S(=O)(=O)N1CCCCC1 | inactive
CCc1ccc2nc(N3C(=O)C(O)=C(C(=O)c4ccco4)C3c3cccs3)sc2c1 (stereo not given) | inactive

Compound | Potency
Cc1nc2c(c(=O)n1CCC1=CCCCC1)c1nc3ccccc3nc1n2/N=C/c1ccco1 | inactive
CC(=O)Nc1ccc(NS(=O)(=O)c2c(Cl)cccc2Cl)cc1 | inactive
O=C(COc1ccccc1F)Nc1nnc(C2CCCC2)s1 | inconclusive: 16.4 µM [activator, partial curve, poor fit]
Cc1nc2cc(-c3cccc(F)c3)nn2c(C)c1CCC(=O)NC(C)CCc1ccco1 (stereo not given) | inactive
Brc1ccc(-c2cnc(-c3cccs3)o2)cc1 | inconclusive: 23.1 µM [activator, single point]
Cc1ccc(NC(=O)Nc2cnc3ccccc3c2)cc1 | inconclusive: 6.51 µM [activator, partial curve]
COc1cccc(NC(=O)CN(C)C(C)C(=O)N2CCCCC2)c1 (stereo not given) | inactive
O=C1N=C(N2CCOCC2)S/C1=C\C=C/c1ccccc1 | inconclusive: 16.4 µM [activator, partial curve, poor fit]
Cc1ccc(NC(=O)/C=C/c2cccs2)c([N+](=O)[O-])c1 | inconclusive: 6.51 µM [activator, partial curve]
CNc1nc(-c2ccc(Cl)cc2)cs1 | inconclusive: 4.61 µM [activator, full curve, poor fit]
Fc1ccc(N/N=C/C=C/c2ccccc2)c(F)c1 | inconclusive: 29.1 µM [activator, single point]
Cn1c(SCC(=O)c2ccccc2)nnc1-c1ccccn1 | inconclusive: 16.4 µM [activator, single point]
N#CC1=C2Sc3ccccc3N2CCCC1=O | inconclusive: 20.6 µM [activator, partial curve, poor fit]
COc1ccc(CNC(C)C(=O)Nc2ccc3ccccc3c2)cc1OC (stereo not given) | inactive
CC(=O)Nc1ccc(C(=O)/C=C/c2ccc[nH]2)cc1 | inconclusive: 23.1 µM [activator, partial curve, poor fit]
CCN1/C(=C/C=C/c2sc3ccccc3[n+]2CC)Sc2ccccc21 | inconclusive: 2.31 µM [activator, single point]
O=C(CCC(=O)Nc1ccccc1)N/N=C/c1ccc2c(c1)OCO2 | inconclusive: 20.6 µM [activator, single point]
Cc1nn2cc(-c3ccc(-c4ccccc4)cc3)nc2s1 | active: 0.82 µM
COc1cccc(C(=O)Nc2sc(C(C)C)cc2C(N)=O)c1OC | inactive
Cc1cccnc1NC(=S)Nc1ccc(F)cc1F | inactive
NS(=O)(=O)c1ccc(NC(=O)COC(=O)COc2ccc3ccccc3c2)cc1 | inactive
C/C(=N\Oc1cccc(F)n1)c1ccc(Cl)cc1Cl | inconclusive: 32.6 µM [activator, partial curve, poor fit]
CCOc1cccc(C(=O)Nc2nnc(-c3ccco3)s2)c1 | inconclusive: 1.46 µM [activator, full curve]
CC(C)C(NC(=O)c1ccc2c(c1)OCCO2)c1nc2ccccc2[nH]1 (stereo not given) | inconclusive: 32.6 µM [activator, partial curve, poor fit]
Oc1ccc(N=Cc2ccc(OCc3ccccc3)cc2)cc1 | inconclusive: 18.3 µM [activator, single point]

Compound | Potency
CC(C)(C)C(=O)Nc1nc(-c2ccc3c(c2)OCO3)cs1 | active: 2.31 µM
O=C(N/N=C/c1c[nH]c2ccccc12)c1ccccc1 | inconclusive: 20.6 µM [activator, partial curve, poor fit]
Cc1ccnc(NC(=O)CNC(=O)c2sc3ccccc3c2Cl)c1 | active: 10.3 µM
CC1=C(CC(=O)O)c2cc(F)ccc2C1=Cc1ccc(S(C)(=O)=O)cc1 | inactive
O=C(NNC(=O)C1[C@H]2CCCC[C@@H]12)c1ccc(=O)oc1 (stereo not given in full) | inactive
Cc1cc2ccccn2c1C(=O)Nc1ccccc1 | inconclusive: 14.6 µM [activator, partial curve, poor fit]
COCCNC(=O)C(c1cccnc1)N(Cc1ccccc1)C(=O)Cn1nnc2ccccc21 (stereo not given) | inconclusive: 29.1 µM [activator, partial curve, poor fit]
CCOC(=O)c1sc(/N=C/C2=C(O)CC(C)(C)CC2=O)c(C(=O)OCC)c1C | inconclusive: 14.6 µM [activator, partial curve, poor fit]
CC(C)c1ccc(NC(=O)CSc2nc(-c3ccccc3F)nc3nc[nH]c23)cc1 | inconclusive: 29.1 µM [activator, single point]
Cc1cccc2nc(CSc3nnc(N)s3)cn12 | inconclusive: 18.3 µM [activator, partial curve, poor fit]
O=S(=O)(Nc1cccc(-c2ccc(N3CCCCCC3)nn2)c1)c1ccc(C(F)(F)F)cc1 | inconclusive: 18.3 µM [activator, partial curve]
Cc1cccc(N=[N+]([O-])c2cccc(C)n2)n1 | inconclusive: 9.2 µM [activator, partial curve, poor fit]
Cc1ccc(NCCC(=O)c2cccs2)cc1Cl | active: 20.6 µM
CN(C(=O)COC(=O)C1CSC2(C)CCC(=O)N12)c1ccccc1 (stereo not given) | inactive
Cc1ccc(NC(=O)C(C)Sc2nnc(C)n2C)cc1 (stereo not given) | inactive
Nc1ccc(/C=C/C(=O)c2cccs2)cc1 | inconclusive: 10.3 µM [activator, partial curve, poor fit]
COc1cccc(NC(=O)c2cc3ccccc3oc2=O)c1 | active: 0.92 µM
O=C(c1cc2cc([N+](=O)[O-])ccc2oc1=O)n1cccn1 | inactive
CC(=O)NCCC(Cc1ccccc1)c1ccco1 (stereo not given) | inconclusive: 18.4 µM [activator, partial curve, poor fit]
CCOc1ccc(-n2c(=S)sc3c(=O)[nH]c(SCC(=O)C(C)(C)C)nc32)cc1 | inactive
Cc1ccc(C(=O)n2c(=S)nc3ccccn32)cc1 | inconclusive: 0.1 µM [activator, full curve, poor fit]
O=[N+]([O-])c1ccc(O)c(-c2nn[nH]n2)c1 | inconclusive: 29.1 µM [activator, single point]
CC(C)C(=O)Nc1ccc(-c2nc3cccnc3o2)cc1 | inconclusive: 2.31 µM [activator, partial curve]
O=S(=O)(c1ccc(N2CCCC2)cc1)C(F)(F)F | inconclusive: 18.4 µM [activator, single point]
CN(C)C(=O)COc1ncnc2sc(-c3ccccc3)cc12 | inconclusive: 29.1 µM [activator, partial curve, poor fit]

Reference: PubChem BioAssay AID504466 (National Center for Advancing Translational Sciences (NCATS), 2011)
